Measured values reported in the supplement of paper PMC4604168 (melanoma cell lines).
Some of the results follow. Repeats are few or missing, and single values can be far off.

Tested on: WM3526
Assay: cell count relative to DMSO control; melanoma cells; higher = more viable cells
Details: library dose: low library concentration; 72 h
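Further: cell number obtained by counting DAPI-stained nuclei in high-throughput microscope images with image analysis software, screen run in 1,536-well plates.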

SMILES | cell count [%]
Cc1nc(Nc2ncc(C(=O)Nc3c(C)cccc3Cl)s2)cc(N2CCN(CCO)CC2)n1 [dasatanib] + COc1ccc(-c2ccc3c(N4CCOCC4)nc(N4C[C@@H](C)O[C@@H](C)C4)nc3n2)cc1CO [KU0063794] (first compound 0.004 µM, partner dose 0.02 µM) | 89.2
Cc1nc(Nc2ncc(C(=O)Nc3c(C)cccc3Cl)s2)cc(N2CCN(CCO)CC2)n1 [dasatanib] + O=S(=O)(c1ccccc1)N(CC(F)(F)F)c1ccc(C(O)(C(F)(F)F)C(F)(F)F)cc1 [T0901317] (first compound 0.004 µM, partner dose 1.4 µM) | 77.6
NC(=O)Nc1cc(-c2cccc(F)c2)sc1C(=O)N[C@H]1CCCNC1 + COc1ccc(COc2ccc(Cc3cnc(N)nc3N)cc2OC)cc1 [GW2580] (first compound 0.02 µM, partner dose 1 µM) | 78.4
NC(=O)Nc1cc(-c2cccc(F)c2)sc1C(=O)N[C@H]1CCCNC1 + O=C(Nc1ccccc1)c1cc([N+](=O)[O-])ccc1Cl [GW9662] (first compound 0.02 µM, partner dose 2 µM) | 89.1
C[C@]1(c2nc3c(C(N)=O)cccc3[nH]2)CCCN1 [Veliparib] + CCc1ccc(CCOc2ccc(CC3SC(=O)NC3=O)cc2)nc1 [pioglitazone] (first compound 1.4 µM, partner dose 2 µM) | 99.1
OCCn1cc(-c2cnc3nnn(Cc4ccc5ncccc5c4)c3n2)cn1 + COc1ccc2c(c1)CCC1C2CCC2(C)C(NCCCCCCN3C(=O)C=CC3=O)CCC12 [U73122] (first compound 1 µM, partner dose 0.4 µM) | 107
Cc1nc(Nc2ncc(C(=O)Nc3c(C)cccc3Cl)s2)cc(N2CCN(CCO)CC2)n1 [dasatanib] + O=C(O)C(=O)Nc1sc2c(c1C(=O)O)CCNC2 [TCS401] (first compound 0.004 µM, partner dose 1.66667 µM) | 91.4
NCC(=O)Nc1ccc(-n2nc(C(F)(F)F)cc2-c2ccc3c(ccc4ccccc43)c2)cc1 + O=C1NC(=O)/C(=C/c2ccc(-c3ccc(F)cc3O)o2)S1 [AS252424] (first compound 1 µM, partner dose 1 µM) | 49.1
CO[C@@H]1[C@H](N(C)C(=O)c2ccccc2)C[C@H]2O[C@]1(C)n1c3ccccc3c3c4c(c5c6ccccc6n2c5c31)C(=O)NC4 [Midostaurin] + CN(C)S(=O)(=O)c1ccc2c(c1)/C(=C/c1cc3c([nH]1)CCCC3)C(=O)N2 [SU6656] (first compound 0.08 µM, partner dose 0.4 µM) | 88.3
C[C@]1(c2nc3c(C(N)=O)cccc3[nH]2)CCCN1 [Veliparib] + O=C(O)C(=O)Nc1sc2c(c1C(=O)O)CCNC2 [TCS401] (first compound 1.4 µM, partner dose 1.66667 µM) | 103
CO[C@@H]1[C@H](N(C)C(=O)c2ccccc2)C[C@H]2O[C@]1(C)n1c3ccccc3c3c4c(c5c6ccccc6n2c5c31)C(=O)NC4 [Midostaurin] + COc1cc2ncnc(Nc3ccc(Oc4ccccc4)cc3)c2cc1OC [SrcI1] (first compound 0.08 µM, partner dose 2 µM) | 97.6
C[C@]1(c2nc3c(C(N)=O)cccc3[nH]2)CCCN1 [Veliparib] + Oc1cc(-c2nc(-c3ccccc3)[nH]c2-c2ccncc2)ccc1Cl [L779450] (first compound 1.4 µM, partner dose 0.2 µM) | 76.5
CO[C@@H]1[C@H](N(C)C(=O)c2ccccc2)C[C@H]2O[C@]1(C)n1c3ccccc3c3c4c(c5c6ccccc6n2c5c31)C(=O)NC4 [Midostaurin] + Cc1cc(N2CCOCC2)cc2[nH]c(-c3c(NC[C@@H](O)c4cccc(Cl)c4)cc[nH]c3=O)nc12 [BMS536924] (first compound 0.08 µM, partner dose 0.2 µM) | 88.1
C[C@]1(c2nc3c(C(N)=O)cccc3[nH]2)CCCN1 [Veliparib] + O=C(CCCCCCC(=O)Nc1ccccc1)NO [vorinostat] (first compound 1.4 µM, partner dose 0.08 µM) | 91.2
Cc1nc(Nc2ncc(C(=O)Nc3c(C)cccc3Cl)s2)cc(N2CCN(CCO)CC2)n1 [dasatanib] + Cc1cc([N+](=O)[O-])ccc1NS(=O)(=O)c1cc(Cl)ccc1Cl [FH535] (first compound 0.004 µM, partner dose 1 µM) | 93.1
CO[C@@H]1[C@H](N(C)C(=O)c2ccccc2)C[C@H]2O[C@]1(C)n1c3ccccc3c3c4c(c5c6ccccc6n2c5c31)C(=O)NC4 [Midostaurin] + O=C(O)C(=O)Nc1sc2c(c1C(=O)O)CCNC2 [TCS401] (first compound 0.08 µM, partner dose 1.66667 µM) | 101
C[C@]1(c2nc3c(C(N)=O)cccc3[nH]2)CCCN1 [Veliparib] + OCCn1cc(-c2cnc3nnn(Cc4ccc5ncccc5c4)c3n2)cn1 [PF04217903] (first compound 1.4 µM, partner dose 1 µM) | 96.4
CO[C@@H]1[C@H](N(C)C(=O)c2ccccc2)C[C@H]2O[C@]1(C)n1c3ccccc3c3c4c(c5c6ccccc6n2c5c31)C(=O)NC4 [Midostaurin] + CN(NC(=O)CC(=O)NN(C)C(=S)c1ccccc1)C(=S)c1ccccc1 [STA4783] (first compound 0.08 µM, partner dose 0.006 µM) | 71.4
NC(=O)Nc1cc(-c2cccc(F)c2)sc1C(=O)N[C@H]1CCCNC1 + CCc1ccc(CCOc2ccc(CC3SC(=O)NC3=O)cc2)nc1 [pioglitazone] (first compound 0.02 µM, partner dose 2 µM) | 88.2
CN(C)S(=O)(=O)c1ccc2c(c1)/C(=C/c1cc3c([nH]1)CCCC3)C(=O)N2 + CC(C)CCN1c2nc(Nc3cc(F)c(O)c(F)c3)ncc2N(C)C(=O)C1C [BID1870] (first compound 0.4 µM, partner dose 0.2 µM) | 101
C=CCn1c(=O)c2cnc(Nc3ccc(N4CCN(C)CC4)cc3)nc2n1-c1cccc(C(C)(C)O)n1 + CCCCCCCCCCCC1=C(O)C(=O)C=C(O)C1=O [Embelin] (first compound 0.02 µM, partner dose 1.2 µM) | 98.9
CO[C@@H]1[C@H](N(C)C(=O)c2ccccc2)C[C@H]2O[C@]1(C)n1c3ccccc3c3c4c(c5c6ccccc6n2c5c31)C(=O)NC4 [Midostaurin] + CCN(CC)CCCCNc1ncc2cc(-c3cc(OC)cc(OC)c3)c(NC(=O)NC(C)(C)C)nc2n1 [PD173074] (first compound 0.08 µM, partner dose 0.1 µM) | 128
CO[C@@H]1[C@H](N(C)C(=O)c2ccccc2)C[C@H]2O[C@]1(C)n1c3ccccc3c3c4c(c5c6ccccc6n2c5c31)C(=O)NC4 [Midostaurin] + O=C1NC(=O)/C(=C/c2ccc(-c3ccc(F)cc3O)o2)S1 [AS252424] (first compound 0.08 µM, partner dose 1 µM) | 103
OCCn1cc(-c2cnc3nnn(Cc4ccc5ncccc5c4)c3n2)cn1 + CCc1ccc(CCOc2ccc(CC3SC(=O)NC3=O)cc2)nc1 [pioglitazone] (first compound 1 µM, partner dose 2 µM) | 94.9
C[C@]1(c2nc3c(C(N)=O)cccc3[nH]2)CCCN1 [Veliparib] + CC1(C)NC(=O)N(c2ccc([N+](=O)[O-])c(C(F)(F)F)c2)C1=O [nilutamide] (first compound 1.4 µM, partner dose 1 µM) | 100
Cc1nc(Nc2ncc(C(=O)Nc3c(C)cccc3Cl)s2)cc(N2CCN(CCO)CC2)n1 [dasatanib] + COc1cc(Nc2ncc(F)c(Nc3ccc4c(n3)NC(=O)C(C)(C)O4)n2)cc(OC)c1OC [Tamatinib] (first compound 0.004 µM, partner dose 0.4 µM) | 84.1
CN(C)S(=O)(=O)c1ccc2c(c1)/C(=C/c1cc3c([nH]1)CCCC3)C(=O)N2 + COC(=O)c1sccc1S(=O)(=O)Nc1ccc(Nc2ccccc2)cc1OC [GSK0660] (first compound 0.4 µM, partner dose 1 µM) | 98.3
CN(C)S(=O)(=O)c1ccc2c(c1)/C(=C/c1cc3c([nH]1)CCCC3)C(=O)N2 + NCC(=O)Nc1ccc(-n2nc(C(F)(F)F)cc2-c2ccc3c(ccc4ccccc43)c2)cc1 [OSU03012] (first compound 0.4 µM, partner dose 1 µM) | 50.7
